Assay results published in the supplement of paper PMC4466236.
The full ranking holds about 33,000 sequences; the median of “E-score (dimensionless, -0.5 to 0.5)” is about -0.058, and the highest 2% start at about 0.35. The list shows a part of the results.

The sequences below were run on MvaT (assay: PBM 8-mer E-score (mean of HK and ME arrays) (E-score (dimensionless, -0.5 to 0.5)); higher = stronger relative binding preference; most listed sequences are background and not binding sites).
Summary of the method: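 Full-length P. aeruginosa MvaT, with glutathione S-transferase fused to its N-terminus (cloned into pTH6838 by isothermal assembly), was tested by protein binding microarray using a previously described protocol. Two universal double-stranded 60-mer arrays (ME and HK) were used, each with a constant 25-mer primer region and a variable 35-mer region covering all 8-mers. The rank-based 8-mer E-score (-0.5 to 0.5) is the mean of the two arrays, parsed with a custom Python script.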

Row | Sequence | PBM 8-mer E-score
1 | ACCCTACG | -0.135
2 | AGTCATAC | 0.0573
3 | ACCGGGAT | 0.0262
4 | ACAAAGAT | 0.214
5 | AGGCTGTA | -0.0981
6 | CGTACCCC | -0.312
7 | GTCGCAAA | 0.0316
8 | ATCCTCTC | -0.177
9 | GGGAGGCA | -0.285
10 | AATTCCTA | 0.0589
11 | CTAGGCAG | -0.255
12 | ACATTATC | 0.218
13 | CGACCAGC | -0.278
14 | CCACAACA | 0.23
15 | ACACCGGT | -0.107
16 | ACATGGAA | 0.125
17 | GAGTCACA | -0.213
18 | ACGGTACC | -0.0346
19 | ATGTACAA | 0.318
20 | CTATGCAA | 0.0651
21 | CTCCAGTA | -0.0483
22 | ACAATATA | 0.425
23 | TAACCAGA | 0.0185
24 | ACTGCCAT | -0.146
25 | CGCTCCTC | -0.262

Row | Sequence | PBM 8-mer E-score
26 | CGCCTTTC | -0.0958
27 | GGATACCC | -0.253
28 | CGCGTCCA | -0.129
29 | ATAAATGA | 0.316
30 | AGACGAAA | 0.0661
31 | CCAGCGCC | -0.312
32 | AATCCCAT | -0.0767
33 | CGAGATCG | -0.213
34 | GATCCCGC | -0.191
35 | TAATTGAA | 0.252
36 | CCGAGTCC | -0.234
37 | AAGATGCA | -0.0197
38 | CGGGCAAC | -0.166
39 | GTACCACA | -0.151
40 | CATAATAG | 0.318
41 | ACGCCTGG | -0.174
42 | GTTTTTTA | 0.248
43 | AGCTTCAT | -0.108
44 | CGACCCGC | -0.11
45 | CCATATCA | 0.122
46 | CACTCGGC | -0.142
47 | AGTCTTTC | 0.0268
48 | CCTCGGGA | -0.325
49 | AACTACTC | 0.131
50 | CCGGTAGG | -0.273

Row | Sequence | PBM 8-mer E-score
51 | GCTTCTCA | -0.254
52 | AAGCGAAT | 0.024
53 | AACTTTAC | 0.275
54 | ATGCACCA | -0.0306
55 | GTCTAGTA | -0.038
56 | ATGGCTGC | -0.133
57 | ACGGAACG | -0.144
58 | ACTAGTTA | 0.345
59 | CCTAATAC | 0.104
60 | TCAGAAGA | -0.0321
61 | CGCAAACA | 0.0458
62 | CTTATAAA | 0.377
63 | ACGACCGC | -0.178
64 | CAGTGGCC | -0.178
65 | CCCCTTGC | -0.316
66 | CAAATAGC | 0.0989
67 | CTCCTGTA | -0.0796
68 | GGTCGAAC | -0.0987
69 | AAGGTCGA | 0.00108
70 | GGTAGTAA | 0.159
71 | CACCGTCA | -0.178
72 | AGATTGCG | 0.0138
73 | GCGCGCTA | -0.0482
74 | GTATCTCA | 0.0502
75 | GGAGAAAA | -0.143

Row | Sequence | PBM 8-mer E-score
76 | AGATGACA | -0.0249
77 | TCATCTAA | 0.14
78 | CAGAGCTG | -0.159
79 | AATCAGAC | -0.0697
80 | CTGGGAAA | 0.00808
81 | AGTCATAA | 0.163
82 | GCCGTAAA | -0.0198
83 | CAATCGTG | -0.0354
84 | CCGGGGCG | -0.253
85 | CATCCACG | -0.19
86 | GCCATGCA | -0.255
87 | ATTCTTTA | 0.259
88 | CCACAACG | -0.173
89 | TATCCGGA | -0.0438
90 | ACGCTCCC | -0.33
91 | AAGCCATA | -0.0171
92 | GAACGGTC | -0.239
93 | TCTTTTCA | 0.0731
94 | GAAGCTTA | 0.0379
95 | AACTGACA | 0.12
96 | ATTACCAC | 0.17
97 | AGGAAAAT | 0.122
98 | AATATATC | 0.445
99 | GATTAAGA | 0.157
100 | AATACCAA | 0.227

Row | Sequence | PBM 8-mer E-score
101 | GGATCAGA | -0.221
102 | AACTAATC | 0.187
103 | CTATGTAC | 0.112
104 | GAGACGGC | -0.291
105 | CGGCACCA | -0.148
106 | CAGTGCCA | -0.178
107 | AGGTTTGG | -0.0442
108 | ACAAGTCC | -0.158
109 | ATCTAGAT | 0.104
110 | GAATAACA | 0.2
111 | ATCAGTCA | -0.0954
112 | ATGAACTC | -0.04
113 | CTCTTAGC | -0.0824
114 | GTGTACAA | 0.168
115 | AGGAGAAA | -0.112
116 | CTCTATGA | -0.117
117 | AAATTGCG | 0.208
118 | AATAGACA | 0.0704
119 | GACCACTA | -0.0287
120 | ACCGGAGT | -0.185
121 | GGCTTTAC | -0.0927
122 | TATCGACA | 0.226
123 | ACAAGTCT | -0.0548
124 | CCCGACGG | -0.229
125 | ATAAGTTC | 0.368

Row | Sequence | PBM 8-mer E-score
126 | TATCGCCA | 0.147
127 | CATCACAA | -0.0723
128 | AAAGCCGG | -0.0727
129 | AGACATAT | 0.241
130 | CACTCGTC | -0.185
131 | GAACTACA | 0.138
132 | GTGATCCA | -0.0772
133 | GGGAGCCA | -0.274
134 | AGATAGTA | 0.253
135 | AGCGGCGC | -0.215
136 | CGACATCA | -0.101
137 | GCCCTTAA | -0.000377
138 | GAAGGGTC | -0.257
139 | AAAATTAA | 0.387
140 | CTTTCACA | -0.00139
141 | AACAAGAG | 0.146
142 | CATGCCAC | -0.116
143 | GCGGCCTA | -0.148
144 | CTACTCAG | -0.22
145 | AATGCCTG | -0.0755
146 | AGCGGTCC | -0.317
147 | TACGTGAA | 0.115
148 | CTAAGGGA | -0.123
149 | GAAGAGGA | -0.13
150 | ACTCTTCT | -0.0108

Row | Sequence | PBM 8-mer E-score
151 | AGGTCCGA | -0.238
152 | CTAGCTCC | -0.0314
153 | AACAATGA | 0.201
154 | CCCTCCCC | -0.41
155 | ATTCTAAG | 0.248
156 | AATGTCTC | 0.028
157 | CCACCCCG | -0.32
158 | CCTCAAAC | -0.125
159 | ACCGCTGG | -0.0631
160 | CGCCCAAC | -0.0513
161 | CAATGCGA | -0.195
162 | AGGGACAG | -0.212
163 | TCTCAACA | 0.049
164 | GAACTCGC | -0.161
165 | AGAGTAAT | 0.141
166 | TCATTGCA | -0.0364
167 | AATTAGCG | 0.113
168 | AGAACGTA | 0.0108
169 | ACTTCCAG | 0.0169
170 | AGTAGCCG | -0.117
171 | CCCGCGCC | -0.173
172 | CAGACGTA | -0.0998
